Where a name gives a salt, the structure may show the parent alone. The list shows a part of the results. Most values come without repeats; read them as rough.
These compounds were tested on HCC-1187 (assay: cell viability relative to vehicle (% of vehicle); basal-like triple-negative breast cancer lines; higher = less cytotoxic). Details: 10 µM; 72 h.
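Further: stably firefly luciferase-GFP labeled cells in 96-well plates, viability read as luciferase photon flux after d-luciferin addition, treated wells normalized to vehicle wells, single-dose high-throughput screen.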

SMILES	cell viability
COc1cc2nccc(Oc3ccc(NC(=O)NC4CC4)c(Cl)c3)c2cc1C(N)=O [Lenvatinib (E7080)]	81.8
O=C(O)c1cccnc1 [Nicotinic Acid]	91
Nc1ccn(C2CCC(CO)O2)c(=O)n1 (configuration not stated) [Zalcitabine]	82.2
CCCNC(=O)NS(=O)(=O)c1ccc(Cl)cc1 [Chlorpropamide]	97.6
Nc1ccn(CC(CO)OCP(=O)(O)O)c(=O)n1.O.O (configuration not stated) [Cidofovir dihydrate]	77.1
CCC1OC(=O)C(C)C(OC2CC(C)(OC)C(O)C(C)O2)C(C)C(OC2OC(C)CC(N(C)C)C2O)C(C)(O)CC(C)C(=O)C(C)C(O)C1(C)O (configuration not stated) [Erythromycin]	85.3
Nc1nc(N)nc(-c2cc(Cl)ccc2Cl)n1 [Irsogladine]	91.4
Cc1c(O)c(=O)ccn1C [Deferiprone]	107
CS(=O)(=O)O.Cc1ccc(N(CC2=NCCN2)c2cccc(O)c2)cc1 [Phentolamine Mesylate]	98.5
CC(=O)C1CCC2C3CCC4=CC(=O)CCC4(C)C3CCC12C (configuration not stated) [Progesterone]	133
CCc1c2c(nc3ccc(OC(=O)N4CCC(N5CCCCC5)CC4)cc13)-c1cc3c(c(=O)n1C2)COC(=O)[C@]3(O)CC [Irinotecan HCl Trihydrate]	73.2
CC(C)COc1ccc(CNC(=O)N(Cc2ccc(F)cc2)C2CCN(C)CC2)cc1 [Pimavanserin]	41.6

Source: the supplement of paper PMC8512760
